In all, about 48,000 compounds went through this assay and about 450 (0.94%) were called active. Roughly 19% stayed inconclusive and do not appear here. The call rests on the fitted dose curve; in most records, active means well fitted inhibition curve with a large enough effect; inconclusive means small, poorly fitted or top-dose-only effect; inactive means no such curve, though single readings can be large or run the other way. This is one part of the list.
experiment: Primary qHTS for Identification of Small Molecule Inhibitors of Huntingtin Promoter Activity; conditions: HEK293 HTT promoter firefly luciferase reporter (activity 0% = vehicle and -100% = no light), 24 h; series mostly up to 57.5 µM; activity change, negative = inhibition: at the top concentration; further: nearly all actives have a fitted effect of over 50% in size
Procedure, shortened: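 HEK293 cells carrying firefly luciferase reporters were seeded at 2,500 per well in Opti-MEM and cultured for 24 h. They were then treated with compounds at up to 57.5 uM final for 24 h at 37 degrees C before Dual-Glo luminescence readout.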

Activity change, negative = inhibition, inactive:
Cc1cc(=O)n(Cc2cccc(F)c2)c2c1c(C)nn2-c1cccc(F)c1 -3.46%
CCc1cccc(CC)c1-n1nnc2c(sc3nc(C)cc(C)c32)c1=O 6.95%
Cc1ccccc1CN1c2ccccc2-c2nc(SCC(N)=O)ncc2S1(=O)=O -15%
CCc1ccc(-c2nn(CC(=O)Nc3ccccc3C)c3c2cnc2ccc(C)cc23)cc1 -16.1%
Clc1ccc(OCc2nc3ccccc3n2Cc2ccccc2)c(Cl)c1 9.36%
Cc1ccc(C)c(NC(=O)c2nn(C)c3c2CS(=O)(=O)c2ccccc2-3)c1 -12.7%
CC(C)(C)C1CCc2c(sc3nnn(CCOc4ccccc4)c(=O)c23)C1 (stereo not given) 9.39%
COc1cc(/C=C/c2nc(C#N)c(NCCc3ccccc3)o2)cc(OC)c1OC -11.5%
COc1cc(NC(=O)c2nc3ccccc3nc2N2CCCCC2)cc(OC)c1OC 12.7%
Cc1ccc(CNC(=O)c2ccc(-c3nc(CS(=O)c4ccccc4)c(C)o3)cc2)cc1 (stereo not given) -11.8%
Cc1ccc(-c2nn(CC(=O)NC3CCCC3)c3c2cnc2ccccc23)cc1 5.33%
Cc1ccc(C)c(NC(=O)CN2C(=O)c3cccnc3Oc3ccc(C)cc32)c1 -3.67%
COCCn1ccc2c(OCC(=O)Nc3ccccc3F)cccc2c1=O 0%
O=C1N(c2ccccc2)c2ccccc2C1(Cc1ccncc1)Cc1ccncc1
CCOC(=O)N1CCc2c(sc3c2c(=O)n(CCc2ccccc2)c(=O)n3CC(=O)Nc2cccc(C)c2)C1 -5.25%
CCC(=O)Nc1ccc(CC)cc1-c1nc2ccccc2n(CC(=O)Nc2cccc(OC)c2)c1=O -8.74%
CCOC(=O)c1cc2c(=O)n3ccccc3nc2n(CC(C)C)c1=NC(=O)COc1ccc(Cl)cc1 -1.51%
COc1ccc(C(=O)Nc2ccc3nc4c(c(Nc5ccc(OC)c(OC)c5)c3c2)CCCC4)c(OC)c1 -6.17%
COc1ccc(-c2nc(CS(=O)CC(=O)NCCc3ccccc3)c(C)o2)cc1OC (stereo not given) 4.42%
COc1ccc(OC)c(NC(=O)CCCc2nnc3n(C(C)C)c(=O)c4sccc4n23)c1 -10.1%
Cc1ccc(Cl)cc1-n1nnc(-c2nsc(NC(=O)c3ccccc3Cl)n2)c1C -29%
Cc1ccc2oc(C(=O)Nc3ccc(S(=O)(=O)N4CCCC(C)C4)cc3)cc(=O)c2c1 (stereo not given) -5.33%
CCc1ccc(-n2c(=O)c3ccccc3n(CC(=O)NCCc3ccc(OC)c(OC)c3)c2=O)cc1 -13.7%
COc1ccc(Cl)cc1NC(=O)NCCn1c(=O)oc2ccc(C)cc21 -21.1%
COc1ccc(C)cc1NC(=O)N1CCC(CN2CCOCC2)CC1 -22%
Cn1cc(S(C)=O)c(=O)c2ccc(F)cc21 (stereo not given) -0.484%
Cc1ccc2cc3cc(C(=O)N4CCN(c5ccc(Cl)cc5)CC4)oc3nc2c1 -1.97%
COc1ccc(-c2cn3nc(N4CCC(C(=O)Nc5ccccc5OC)CC4)sc3n2)cc1 3.49%
CCN(CC)C(=O)c1sc2c(c1C)c(=O)n(-c1ccccc1)c(=O)n2Cc1c(C)cc(C)cc1C -0.709%
CC(C)C(NS(=O)(=O)c1ccc2c(c1)oc(=O)n2C)C(=O)N1CCN(c2cccc(Cl)c2)CC1 (stereo not given) -29.8%
CCN(CC)C(=O)c1ccc2c(c1)N(Cc1c(F)cccc1Cl)C(=O)c1ccccc1S2 -27.5%
COc1ccc(N2CC(NC(=O)c3cccs3)CC2=O)cc1 (stereo not given) 3.94%
O=C(CSc1nc(=O)[nH]c2c1CCCC2)Nc1ccc(Cl)c(Cl)c1 -18.2%
Cc1ccc(-n2nc(C(=O)Nc3ccc(F)cc3Cl)c(=O)n(C)c2=O)cc1 -2.64%
CCN(CC)S(=O)(=O)c1ccc(NC(=O)c2cc3ccc4cccnc4c3[nH]2)cc1 -28.3%
Cc1ccc(C(=O)n2nc(C)c(S(=O)(=O)N3CCCCCC3)c2C)cc1C -11.9%
CCc1nnc(NC(=O)CSc2nccn2Cc2ccc(C)cc2)s1 -35.9%
COc1ccccc1NC(=O)CSc1nc(O)c(C/C=C/c2ccccc2)c(=O)[nH]1 -16.9%
COc1ccc(CNC(=O)c2nc(SCc3ccc(C)cc3)ncc2Cl)cc1 -27.1%
COc1ccc(Cn2c(=O)n(-c3ccc(F)c(Cl)c3)c(=O)c3c2c2cc(OC)ccc2n3C)cc1 -3.77%
CCOC(=O)c1c(S(=O)(=O)N2CCC(C(=O)NCc3cccc(C)c3)CC2)c(C)n(C)c1C -12.1%
Cc1ccc(OCc2nc(-c3ccc(C(=O)NCCc4ccc(Cl)cc4)cc3)oc2C)cc1 -18.8%
Cc1ccc(NC(=O)CN2C(=O)CCc3ccccc32)cc1C -17.6%
COc1ccc(NC(=O)c2nn(C)c3c2CS(=O)(=O)c2ccccc2-3)cc1Cl -19.2%
Cc1ccccc1CN1C(=O)c2ccccc2Sc2ccc(C(=O)NC3CCCCC3)cc21 1.36%
CC(C)Nc1ccc(-c2nc(-c3ccncc3)no2)cc1[N+](=O)[O-] 68.2%
COc1ccc(N(CC(=O)NC(C)c2ccccc2)S(=O)(=O)c2c(C)nn(C)c2C)cc1 (stereo not given) -8.15%
COc1ccc(N2CCN(Cc3nc4c(c(=O)[nH]c(=O)n4C)n3Cc3ccc(C)cc3)CC2)cc1 -12.3%
CCOC(=O)c1c(C)[nH]c(C)c1S(=O)(=O)N1CCCC(C(=O)N2CCN(c3ccccc3F)CC2)C1 (stereo not given) -17.9%
CCc1nn(CC(=O)N2CCN(c3cccc(OC)c3)CC2)c(=O)c2cc3occc3n12 -6.56%
CC1CN(C(=O)CCC(=O)NCc2cccc(Cl)c2)c2ccccc2S1 (stereo not given) -32.4%
O=C(O)c1ccc(Cn2cnc3cccnc32)cc1 -15.2%
CC1CCN(CC2CCN(C(=O)NCc3ccc(F)cc3)CC2)CC1 -4.79%
COc1ccccc1C(=O)N(Cc1nc(-c2cccc(C)c2)no1)C(C)C -27.2%
CCOc1ccc(C2C(C(=O)Nc3ccccc3)=C(C)Nc3nc(SCc4cccc(OC)c4)nn32)cc1 (stereo not given) 6.07%
Cc1ccc(/C=C/c2onc(C)c2S(=O)(=O)N2CCC(C(=O)N3CCN(c4cccc(C)c4)C(C)C3)CC2)cc1 (stereo not given) -25.1%
Cc1nn(C(C)C(=O)NC2CCC(C)CC2)c(=O)c2c1sc1ccccc12 (stereo not given) -2.05%
CCc1nc(-c2cc(S(=O)(=O)N3CCN(c4ccc(OC)cc4)CC3)ccc2OC)no1 -13%
CCc1ccc(OCc2nc(-c3ccc(-n4cccc4)cc3)no2)cc1 13.1%
C=CC(=O)Nc1ccc2ncnc(Nc3ccc(OCc4cccc(F)c4)c(Cl)c3)c2c1 -18.8%
